Assay results: patent publication US20260083855A1 (Hoffmann-La Roche, published 2026)
Each block holds one binder with its values, some of them ahead of it.

Biological target: T1, hu IL2R beta-gamma-Fc (P1AD7029-002) (human, UniProt P14784 27-240; P31785 23-262)
T1 construct: Analyte in all SPR runs; also called human IL2R beta-gamma Fc; recombinant human IL2Rbeta-gamma-Fc heterodimer; not shown: Fc part and any linker of the heterodimer
T1 sequence (looked up) 1: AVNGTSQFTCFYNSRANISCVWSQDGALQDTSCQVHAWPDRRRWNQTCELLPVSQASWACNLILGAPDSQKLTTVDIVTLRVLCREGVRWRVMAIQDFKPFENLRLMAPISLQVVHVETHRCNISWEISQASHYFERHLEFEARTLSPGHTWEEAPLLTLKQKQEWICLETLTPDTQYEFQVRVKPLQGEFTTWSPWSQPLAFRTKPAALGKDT
T1 sequence (looked up) 2: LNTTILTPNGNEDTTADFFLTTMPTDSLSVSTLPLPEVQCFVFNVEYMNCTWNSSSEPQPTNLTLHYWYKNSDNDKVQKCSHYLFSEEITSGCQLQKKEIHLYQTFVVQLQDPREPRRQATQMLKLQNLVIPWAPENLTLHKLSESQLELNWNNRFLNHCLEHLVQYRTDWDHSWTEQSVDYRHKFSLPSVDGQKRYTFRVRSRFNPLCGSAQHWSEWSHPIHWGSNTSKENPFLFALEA
Assay: SPR, captured via anti-human Fc, IL2Rbg-Fc analyte, 1:1 Langmuir
Excerpt: Bulk refractive index differences were corrected for by subtracting the response obtained on the reference flow cell 1.

Kd: 0.03 nM
koff: 9.98e-07 s⁻¹
kon: 34400 M⁻¹ s⁻¹
B1: FAP 4B9 IgG-huIL2v_Q22A (P1AE4811) (other)
light: EIVLTQSPGTLSLSPGERATLSCRASQSVTSSYLAWYQQKPGQAPRLLINVGSRRATGIPDRFSGSGSGTDFTLTISRLEPEDFAVYYCQQGIMLPPTFGQGTKVEIKRTVAAPSVFIFPPSDEQLKSGTASVVCLLNNFYPREAKVQWKVDNALQSGNSQESVTEQDSKDSTYSLSSTLTLSKADYEKHKVYACEVTHQGLSSPVTKSFNRGEC
heavy 1: EVQLLESGGGLVQPGGSLRLSCAASGFTFSSYAMSWVRQAPGKGLEWVSAIIGSGASTYYADSVKGRFTISRDNSKNTLYLQMNSLRAEDTAVYYCAKGWFGGFNYWGQGTLVTVSSASTKGPSVFPLAPSSKSTSGGTAALGCLVKDYFPEPVTVSWNSGALTSGVHTFPAVLQSSGLYSLSSVVTVPSSSLGTQTYICNVNHKPSNTKVDKKVEPKSCDKTHTCPPCPAPEAAGGPSVFLFPPKPKDTLMISRTPEVTCVVVDVSHEDPEVKFNWYVDGVEVHNAKTKPREEQYNSTYRVVSVLTVLHQDWLNGKEYKCKVSNKALGAPIEKTISKAKGQPREPQVCTLPPSRDELTKNQVSLSCAVKGFYPSDIAVEWESNGQPENNYKTTPPVLDSDGSFFLVSKLTVDKSRWQQGNVFSCSVMHEALHNHYTQKSLSLSPGK
heavy 2: EVQLLESGGGLVQPGGSLRLSCAASGFTFSSYAMSWVRQAPGKGLEWVSAIIGSGASTYYADSVKGRFTISRDNSKNTLYLQMNSLRAEDTAVYYCAKGWFGGFNYWGQGTLVTVSSASTKGPSVFPLAPSSKSTSGGTAALGCLVKDYFPEPVTVSWNSGALTSGVHTFPAVLQSSGLYSLSSVVTVPSSSLGTQTYICNVNHKPSNTKVDKKV[human IgG1 Fc with changes not written out]GGGGSGGGGSGGGGSGGGGSGGGGSAPASSSTKKTQLQLEHLLLDLAMILNGINNYKNPKLTRMLTAKFAMPKKATELKHLQCLEEELKPLEEVLNGAQSKNFHLRPRDLISNINVIVLELKGSETTFMCEYADETATIVEFLNRWITFAQSIISTLT
notes: Immunoconjugate: anti-FAP IgG1 PG LALA knob/hole, IL2v variant on the knob heavy chain; also called P1AE4811-003

Kd: 0.09 nM
koff: 2.35e-06 s⁻¹
kon: 25400 M⁻¹ s⁻¹
B2: FAP 4B9 IgG-huIL2v_E95A (P1AE4801) (other)
light: B1 light
heavy 1: B1 heavy 1
heavy 2: EVQLLESGGGLVQPGGSLRLSCAASGFTFSSYAMSWVRQAPGKGLEWVSAIIGSGASTYYADSVKGRFTISRDNSKNTLYLQMNSLRAEDTAVYYCAKGWFGGFNYWGQGTLVTVSSASTKGPSVFPLAPSSKSTSGGTAALGCLVKDYFPEPVTVSWNSGALTSGVHTFPAVLQSSGLYSLSSVVTVPSSSLGTQTYICNVNHKPSNTKVDKKV[human IgG1 Fc with changes not written out]GGGGSGGGGSGGGGSGGGGSGGGGSAPASSSTKKTQLQLEHLLLDLQMILNGINNYKNPKLTRMLTAKFAMPKKATELKHLQCLEEELKPLEEVLNGAQSKNFHLRPRDLISNINVIVLALKGSETTFMCEYADETATIVEFLNRWITFAQSIISTLT
notes: Immunoconjugate: anti-FAP IgG1 PG LALA knob/hole, IL2v variant on the knob heavy chain; also called P1AE4801-003

Kd: 0.16 nM
koff: 6.78e-06 s⁻¹
kon: 41900 M⁻¹ s⁻¹
B3: FAP 4B9 IgG-huIL2v_L19V (P1AE4808) (other)
light: B1 light
heavy 1: B1 heavy 1
heavy 2: EVQLLESGGGLVQPGGSLRLSCAASGFTFSSYAMSWVRQAPGKGLEWVSAIIGSGASTYYADSVKGRFTISRDNSKNTLYLQMNSLRAEDTAVYYCAKGWFGGFNYWGQGTLVTVSSASTKGPSVFPLAPSSKSTSGGTAALGCLVKDYFPEPVTVSWNSGALTSGVHTFPAVLQSSGLYSLSSVVTVPSSSLGTQTYICNVNHKPSNTKVDKKV[human IgG1 Fc with changes not written out]GGGGSGGGGSGGGGSGGGGSGGGGSAPASSSTKKTQLQLEHLLVDLQMILNGINNYKNPKLTRMLTAKFAMPKKATELKHLQCLEEELKPLEEVLNGAQSKNFHLRPRDLISNINVIVLELKGSETTFMCEYADETATIVEFLNRWITFAQSIISTLT
notes: Immunoconjugate: anti-FAP IgG1 PG LALA knob/hole, IL2v variant on the knob heavy chain; also called P1AE4808-003

Kd: 3 nM
koff: 9.35e-05 s⁻¹
kon: 27200 M⁻¹ s⁻¹
B4: FAP 4B9 IgG-huIL2v_L12A_L19A (P1AE4806) (other)
light: B1 light
heavy 1: B1 heavy 1
heavy 2: EVQLLESGGGLVQPGGSLRLSCAASGFTFSSYAMSWVRQAPGKGLEWVSAIIGSGASTYYADSVKGRFTISRDNSKNTLYLQMNSLRAEDTAVYYCAKGWFGGFNYWGQGTLVTVSSASTKGPSVFPLAPSSKSTSGGTAALGCLVKDYFPEPVTVSWNSGALTSGVHTFPAVLQSSGLYSLSSVVTVPSSSLGTQTYICNVNHKPSNTKVDKKV[human IgG1 Fc with changes not written out]GGGGSGGGGSGGGGSGGGGSGGGGSAPASSSTKKTQAQLEHLLADLQMILNGINNYKNPKLTRMLTAKFAMPKKATELKHLQCLEEELKPLEEVLNGAQSKNFHLRPRDLISNINVIVLELKGSETTFMCEYADETATIVEFLNRWITFAQSIISTLT
notes: Immunoconjugate: anti-FAP IgG1 PG LALA knob/hole, IL2v variant on the knob heavy chain; also called P1AE4806-003

Kd: 0.07 nM
koff: 2.94e-06 s⁻¹
kon: 39400 M⁻¹ s⁻¹
B5: FAP 4B9 IgG-huIL2v_E15V (P1AE4800) (other)
light: B1 light
heavy 1: B1 heavy 1
heavy 2: EVQLLESGGGLVQPGGSLRLSCAASGFTFSSYAMSWVRQAPGKGLEWVSAIIGSGASTYYADSVKGRFTISRDNSKNTLYLQMNSLRAEDTAVYYCAKGWFGGFNYWGQGTLVTVSSASTKGPSVFPLAPSSKSTSGGTAALGCLVKDYFPEPVTVSWNSGALTSGVHTFPAVLQSSGLYSLSSVVTVPSSSLGTQTYICNVNHKPSNTKVDKKV[human IgG1 Fc with changes not written out]GGGGSGGGGSGGGGSGGGGSGGGGSAPASSSTKKTQLQLVHLLLDLQMILNGINNYKNPKLTRMLTAKFAMPKKATELKHLQCLEEELKPLEEVLNGAQSKNFHLRPRDLISNINVIVLELKGSETTFMCEYADETATIVEFLNRWITFAQSIISTLT
notes: Immunoconjugate: anti-FAP IgG1 PG LALA knob/hole, IL2v variant on the knob heavy chain; also called P1AE4800-003

Kd: 0.01 nM
koff: 4.07e-07 s⁻¹
kon: 32400 M⁻¹ s⁻¹
B6: FAP 4B9 IgG-huIL2v_N119K (P1AE4810) (other)
light: B1 light
heavy 1: B1 heavy 1
heavy 2: EVQLLESGGGLVQPGGSLRLSCAASGFTFSSYAMSWVRQAPGKGLEWVSAIIGSGASTYYADSVKGRFTISRDNSKNTLYLQMNSLRAEDTAVYYCAKGWFGGFNYWGQGTLVTVSSASTKGPSVFPLAPSSKSTSGGTAALGCLVKDYFPEPVTVSWNSGALTSGVHTFPAVLQSSGLYSLSSVVTVPSSSLGTQTYICNVNHKPSNTKVDKKV[human IgG1 Fc with changes not written out]GGGGSGGGGSGGGGSGGGGSGGGGSAPASSSTKKTQLQLEHLLLDLQMILNGINNYKNPKLTRMLTAKFAMPKKATELKHLQCLEEELKPLEEVLNGAQSKNFHLRPRDLISNINVIVLELKGSETTFMCEYADETATIVEFLKRWITFAQSIISTLT
notes: Immunoconjugate: anti-FAP IgG1 PG LALA knob/hole, IL2v variant on the knob heavy chain; also called P1AE4810-003

Kd: 50 nM
koff: 0.00154 s⁻¹
kon: 29600 M⁻¹ s⁻¹
B7: FAP 4B9 IgG-huIL2v_N88T (P1AE4809) (other)
light: B1 light
heavy 1: B1 heavy 1
heavy 2: EVQLLESGGGLVQPGGSLRLSCAASGFTFSSYAMSWVRQAPGKGLEWVSAIIGSGASTYYADSVKGRFTISRDNSKNTLYLQMNSLRAEDTAVYYCAKGWFGGFNYWGQGTLVTVSSASTKGPSVFPLAPSSKSTSGGTAALGCLVKDYFPEPVTVSWNSGALTSGVHTFPAVLQSSGLYSLSSVVTVPSSSLGTQTYICNVNHKPSNTKVDKKV[human IgG1 Fc with changes not written out]GGGGSGGGGSGGGGSGGGGSGGGGSAPASSSTKKTQLQLEHLLLDLQMILNGINNYKNPKLTRMLTAKFAMPKKATELKHLQCLEEELKPLEEVLNGAQSKNFHLRPRDLISTINVIVLELKGSETTFMCEYADETATIVEFLNRWITFAQSIISTLT
notes: Immunoconjugate: anti-FAP IgG1 PG LALA knob/hole, IL2v variant on the knob heavy chain; also called P1AE4809-003
